According to PubChem BioAssay AID651567 (National Center for Advancing Translational Sciences (NCATS), 2012):
The whole screen tested about 1,200 compounds, of which about 10 (0.8%) were called active. About 4% were inconclusive and are not listed. The call rests on the fitted dose curve; in most records, active means well fitted inhibition curve with a large enough effect; inconclusive means small, poorly fitted or top-dose-only effect; inactive means no such curve, though single readings can be large or run the other way. The list shows a part of the results.

assay: qHTS Assay to Find Inhibitors of Chronic Active B-Cell Receptor Signaling: Hit Validation in OCI-Ly3 Assay; settings: OCI-Ly3 IkB-luciferase reporter, Chroma-Glo luminescence, 4 h; series mostly up to 46.1 µM; activity change, negative = inhibition: at the top concentration
Procedure, shortened: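 Readout is dual-colour luminescence: IkB-alpha-luciferase fusion (green) against unfused luciferase (red), plus their ratio, scaled between basal cells and 10 uM MG-132. OCI-Ly3 cells, 0.5% FBS IMDM, compound with doxycycline (80ng/ml solution), 4 hrs at 37C; curves fitted and classed.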
On the % scale 0 is the no-effect control and ±100 the full control effect; potency means the concentration at half of the fitted maximal effect.

Activity change, negative = inhibition, inactive:
COc1ccc(NC(=O)Cn2nnc(-c3ccccc3NS(=O)(=O)c3ccc(OC)cc3)n2)cc1 -0.428%
CCOC(=O)c1cnc(Nc2nc3ccccc3o2)nc1CSC(=S)N(CC)CC -1.67%
CCOc1ccc(Cl)cc1C1=CC(=O)C[C@H](c2ccc(OC)cc2)C1 -4.37%
C[C@@H]1C[C@H]2[C@@H]3C[C@H](F)C4=CC(=O)C=C[C@]4(C)[C@@]3(F)[C@@H](O)C[C@]2(C)[C@@]1(O)C(=O)CO -2.4%
O=C1OCC2=C1C(c1ccc(F)cc1)c1cc3c(cc1N2)OCO3 (centres undefined) -4.57%
CC(C)(C)c1ccc(C(=O)CCC(=O)NCc2ccccc2)cc1 -0.465%
CCCNc1nc(-c2ccccc2)c(C(=O)OCC)cc1C#N -1.65%
CC(=O)Nc1ccc(S(=O)(=O)N2c3ccccc3C(C)=CC2(C)C)cc1 -3.12%
COc1ccccc1N1CCN(C(=O)C2c3ccccc3Oc3ccccc32)CC1 -3.98%
O=C(Oc1ccc2ccc(OC(=O)N3CCOCC3)cc2c1)N1CCOCC1 -0.304%
O=[N+]([O-])c1cc(/C=N/O)ccc1Sc1ccccc1 -1.92%
CC(C)NC(=S)N=Nc1c(O)[nH]c2ccc([N+](=O)[O-])cc12 -11.9%
CCOC(=O)N1CCC(NC(=O)CS(=O)(=O)Cc2nc(-c3ccccc3C)oc2C)CC1 -0.962%
COc1ccc(/C=N/NC(=O)CCn2cnc(-c3ccccc3)c2-c2ccccc2)cc1OC -6.46%
COc1ccc2c(c1)OC(=O)CC2c1cc(OC)c(OC)c(OC)c1 (centres undefined) -0.97%
CCN1C(=O)c2cccc3c(S(=O)(=O)Nc4ccccc4O)ccc1c23 -2.36%
CCN(CC(=O)Nc1ccccc1SC)Cc1nc2ccccc2c(=O)[nH]1 -0.266%
CCOC(=O)C1=C(C)c2ccccc2N(C(=O)OC)C1(C)C(=O)OCC (centres undefined) -1.69%
COc1cc(C(=O)c2cocc2C(=O)c2ccc3c(c2)OCO3)cc(OC)c1OC -1.26%
Clc1cncc(Cl)c1N/N=C/c1ccncc1 -4.45%
O=C(N/N=C/c1cccs1)c1cc(-c2ccncc2)nc2ccccc12 -3.1%
O=C(c1ccc(CS(=O)c2ccccc2Cl)o1)N1CCN(c2ccccc2)CC1 (centres undefined) -1.62%
Oc1ccccc1/C=N/Nc1ccnc(SCc2ccccc2)n1 0.375%
CN(C)c1ccc(C(=O)c2ccc(N(C)C)c3ccccc23)cc1 -5.9%
N#C/C(=C\c1cn(Cc2ccc(F)cc2)c2ccccc12)C(=O)NCc1ccco1 0.627%
COc1ccc(-c2cc(C(=O)N/N=C(\C)c3cccnc3)c3ccccc3n2)cc1 0.473%
Nc1ccc(C(=O)Nc2ccccc2N)cc1 -5.26%
CCCCn1c(=O)c(F)cn(Cc2ccc(OC)c([N+](=O)[O-])c2)c1=O -0.178%
COc1ccc(COC(=O)C2=C(C)NC(=O)NC2c2cc(Br)c(O)c(OC)c2)cc1 (centres undefined) 0.378%
COc1cc(/C=C2\N=C(c3ccccc3)NNC2=O)cc(OC)c1OC -4.52%
CC[C@]12c3[nH]c4cc(CCC(=O)N(C)C)ccc4c3CCN1C(=O)[C@@H](CC(=O)NC(C)(C)C)C[C@@H]2C(=O)N1CCN(C(=O)c2ccco2)CC1 -2.11%
O=c1[nH]c(-c2ccccn2)nc2sc(-c3ccccc3)cc12 15.4%
CC1=CC(C)(C)N(S(=O)(=O)c2ccc(C)cc2)c2ccc(C)cc21 -2.05%
O=C(CCl)Nc1cccc(S(=O)(=O)NC2=NCCCCC2)c1 -25.6%
O=C(CSc1cccc[n+]1[O-])c1ccc(Cl)cc1 -0.776%
Cc1ccc(S(=O)(=O)Nc2cccc3cccnc23)cc1 32.7%
Cc1ccc(S(=O)(=O)Nc2cccc3ncccc23)s1 32.4%
COc1ccc(-c2c(-c3cc(OC)c(OC)c(OC)c3)noc2C)cn1 -3.49%
C(=N\Nc1nc2ccccc2[nH]1)/C1CCCCC1 -0.557%
CCC(=O)[C@@]1(C)[C@H](C)C[C@H]2[C@@H]3CCC4=CC(=O)C=C[C@]4(C)[C@H]3[C@@H](O)C[C@@]21C -1.74%
CC1(C)N=c2ccc([N+](=O)[O-])c(N)c2=[N+]1[O-] -0.356%
CCCCNC(=S)N=Nc1c(O)[nH]c2ccccc12 -0.579%
CCOC(=O)C1C(C(=O)OC)=C(c2ccc(OC)cc2)c2ccccc2N1S(=O)(=O)C(F)(F)F (centres undefined) -0.0891%
CC[C@]1(O)CC2CN(CCc3c([nH]c4ccccc34)[C@@](C(=O)OC)(c3cc4c(cc3OC)N(C=O)[C@H]3[C@@](O)(C(=O)OC)[C@H](OC(C)=O)[C@]5(CC)C=CCN6CC[C@]43[C@@H]65)C2)C1 (some centres undefined) -5.16%
O=C(NC(=S)N1CCN(c2ccc(Cl)cc2[N+](=O)[O-])CC1)c1cccs1 123%
CCCSc1nnc(Sc2nnnn2-c2ccccc2)s1 -9.45%
CC1=Nc2ccccc2/C1=C\c1sc(Nc2ccc(C)cc2)nc1O -20.5%
Cc1cccc(NC(=O)c2ccc(C(=O)Nc3cccc(C)c3)nc2)c1 -0.935%
Cc1ccc(NS(=O)(=O)c2cc(-c3n[nH]c(=O)c4ccccc34)ccc2C)cc1 -3.87%
Cc1cccc(C(=O)Oc2ccc(/C=N/O)cc2)c1 -0.552%
CN1c2ccccc2Sc2cc(N)ccc21 -0.863%
COc1ccc(-c2c(C)nn3c(N)c(C#N)cnc23)cc1OC 0.123%
C=CCOc1c(OC)cc(/C=N/Nc2cccc(C(=O)O)c2)c(Br)c1Br -5.38%
Cc1cc(Cl)n2c(nc3cc(F)c(F)cc32)c1C#N 0.844%
CCCC1=Nc2cc(C(=O)NC3CCCCC3)ccc2Sc2ccc(C)cc21 -3.15%
COc1ccc(C(=O)N(C)Cc2cnn(Cc3ccccc3)c2)cc1S(=O)(=O)N1CCOCC1 -0.0414%
COc1cc2c(cc1OC)C(C)N(C(=O)c1cc(C)on1)CC2 (centres undefined) -2.02%
Nc1ncnc2c1ncn2[C@@H]1O[C@H](COP(=O)(O)O)[C@@H](O)[C@H]1O 0.165%
COCCCn1c(N)c(-c2nc3ccccc3n2C)c2nc3ccccc3nc21 -15.6%
COc1ccc(/C=N/n2c(=S)n(C)c3ccccc32)cc1OC -0.584%
COc1ccc(C2=Nn3c(nnc3-c3ccccn3)SC2)cc1OC 0.19%
C/C(=N\NC(=S)NCCc1ccccc1)c1cccc(Br)c1 -2.39%
COC1=CC(=O)CC(C)C12Oc1c(Cl)c(OC)cc(OC)c1C2=O (centres undefined) -0.642%

Potency, active:
CCn1c(O)c(N=NC(=S)NCC2CCCO2)c2ccccc21 (centres undefined) 20.6 µM
